The assay deals with Plasmodium falciparum. The assay can be described thus: Primary screen in NF54 nanoGlo assay, in single point, at 2uM, 72h; a lower Z score goes with more inhibition. The format is functional, Erythrocyte. The note with it: timepoint 72 hour.

The structures appear in SMILES notation. Hit rate of the full screen: of about 150,000 compounds, about 540 (0.36%) showed an effect of 50% or more. The list shows a part of the results.

From ChEMBL document CHEMBL4888484, “Replenishing the malaria drug discovery pipeline: Screening and hit evaluation of the MMV Hit Generation Library 1 (HGL1) against asexual blood stage Plasmodium falciparum ,using a nano luciferase reporter read-out” (2022) come the findings set out here.

With `Cn1cc(S(=O)(=O)N2CCCC2)cc1C(=O)Nc1ccccc1C(=O)Nc1cccc(F)c1`, the % Inhibition (in general, the relative decrease from the control value, in per cent) is -9% and the Z score was 1.72.

Take `CC(C)N(CC#CCNC(=O)c1cncc(Br)c1)C(C)C`: the “% Inhibition” value is on record as -4% and the Z score was found to be 0.76.

Regarding `Cn1ncc(-c2cc3ccccc3o2)c1N`, the “% Inhibition” value is -8% and the Z score is 0.77.

For the molecule `COC[C@](C)(CC(=O)OC)NCC#Cc1ccc(Cl)cc1`, the “% Inhibition” value is reported as -3% and the Z score is given as 0.52.

`CCc1nc2c(c(N3CCCCC3)n1)C1(CCCC1)Cc1ccccc1-2`: the “% Inhibition” value was -8% and the Z score was 1.05.

Regarding `CC(CCNC(=O)OC(C)(C)C)CC(C)NCCn1cccn1` (stereo unspecified), the “% Inhibition” value was -11% and the Z score worked out at 1.46.

Take `CC(C)Oc1cccc(CC(=O)N(C)CCCC(=O)O)c1`: the “% Inhibition” value is given as -15% and the Z score is on record as 1.28.

On to `CCc1cnc(C)nc1N[C@@H](COC)c1ccnn1C`, for which the “% Inhibition” value is listed as -10% and the Z score amounted to 1.34.

For the molecule `COc1ccc([C@@H]2CN(C(=O)OC(C)(C)C)CCN2)cc1`, the “% Inhibition” value is -2% and the Z score is recorded as 0.38.

`COc1nc2c(cc1CNC(=O)[C@@H]1CNC(=O)N1)C(=O)N(C1CCCC1)C2`: the “% Inhibition” value is -13% and the Z score was found to be 1.38.

Regarding `Cc1ncc(CN[C@H]2CC(=O)N(Cc3cccc(F)c3)C2)n1C`, the “% Inhibition” value is reported as 0% and the Z score was 0.09.

Take `CC(C)n1c([C@H](C)NCc2ccon2)nc2ccccc21`: the “% Inhibition” value was -10% and the Z score was 1.08.

In the case of `O=C(Cn1cnc2ccccc21)N1CCC(N2CC(=O)N(CC(F)(F)F)C2=O)CC1`, the “% Inhibition” value is 1% and the Z score was -0.15.

Consider `O=C1NC(=O)[C@@]2(CCCN(S(=O)(=O)c3cccc4c3OC(F)(F)O4)C2)N1`, for which the “% Inhibition” value is -20% and the Z score is 1.99.

In the case of `CCCNS(=O)(=O)c1cc(-c2c(C)noc2NC(C)=O)ccc1OC`, the “% Inhibition” value is -10% and the Z score was found to be 1.42.

As to `CN(CCCNC(=O)C1CCN(c2ccc(N3CCCC3)nn2)CC1)c1ccccc1`, the “% Inhibition” value was -25% and the Z score was 4.44.

Take `O=C(Cc1ccc(-n2ccnc2)cc1)N1C2CCC1CC(O)C2` (stereo unspecified): the “% Inhibition” value is reported as -4% and the Z score is listed as 0.44.

On to `CC(=O)Nc1cc(N[C@@H](C)c2cn(C(C)(C)C)nc2C)ccc1C`, for which the “% Inhibition” value is reported as -2% and the Z score is 0.22.

As for `CC1(C)C[C@@H](O)CCN(Cc2cncs2)C1`, the “% Inhibition” value is -6% and the Z score turned out to be 0.83.

Turning to `CCc1nsc(NC[C@H]2CCCN2S(C)(=O)=O)n1`, the “% Inhibition” value is reported as -7% and the Z score is 1.03.

`CCCC1(C2CCN(C(=O)c3ccc(C(C)=O)cc3)CC2)NC(=O)N(CC2CCCO2)C1=O` (stereo unspecified): the “% Inhibition” value is recorded as -8% and the Z score stood at 1.05.

With `Cc1ccnc(N2Cc3cnc(CC(C)C)nc3C2)n1`, the “% Inhibition” value is recorded as -13% and the Z score is 2.52.

For `Cc1cc(F)ccc1-c1nccn1CCN(C)S(C)(=O)=O`, the “% Inhibition” value is -11% and the Z score was 2.02.

As to `CN1CCN(C[C@@H]2CN(C(=O)c3ccc4ncccc4c3)C[C@@H]2CO)CC1`, the “% Inhibition” value is listed as -9% and the Z score is 1.52.

`O=C(NCc1ccco1)c1nn(-c2cccc(C(F)(F)F)c2)c(=O)n(Cc2ccc(F)cc2)c1=O`: the “% Inhibition” value is -13% and the Z score worked out at 1.79.

With `Cc1cnn([C@@H](C)CNC(=O)CCn2nnc3ccccc32)c1`, the “% Inhibition” value is -3% and the Z score was 0.63.

For `CN(C[C@H]1CCCN1Cc1cnc2cnccn12)C(=O)OC(C)(C)C`, the “% Inhibition” value is reported as 1% and the Z score was -0.09.

Take `Cc1nc(COC(=O)C2CCN(S(=O)(=O)c3ccc(C(C)(C)C)cc3)CC2)cs1`: the “% Inhibition” value was -8% and the Z score is reported as 1.17.

Take `O=C(N[C@@H]1CN(c2ccncn2)C[C@H]1CO)c1cccnc1`: the “% Inhibition” value is reported as -6% and the Z score was 0.84.

`Brc1cnc(N2CCN(Cc3cocn3)CC2)nc1`: the “% Inhibition” value was 8% and the Z score is recorded as -0.89.

`COc1cccc(C(=O)N2CCN(C3=Nc4ccccc4Oc4ccc(OC)cc43)C[C@@H]2C)c1`: the “% Inhibition” value is on record as -8% and the Z score came to 0.77.

As to `O=C(C[C@H]1COCCN1C(=O)c1ccncc1F)c1ccco1`, the “% Inhibition” value is -6% and the Z score stood at 0.81.

With `C[C@H](Nc1ccc(Nc2ccccc2)cc1)C(=O)Nc1ccc(S(N)(=O)=O)cc1`, the “% Inhibition” value is on record as -12% and the Z score was 1.95.

As to `COc1ccc(NS(=O)(=O)Cc2ccccc2)c(C)n1`, the “% Inhibition” value is given as -6% and the Z score was found to be 0.59.

With `Cc1noc(C(C)C)c1NC(=O)N1CCOC[C@H]1c1ccco1`, the “% Inhibition” value is -6% and the Z score is reported as 0.93.

Regarding `O=S(=O)(c1ccc2c(c1)CCO2)N1CCN(c2cnccn2)CC1`, the “% Inhibition” value is -3% and the Z score was 0.46.

In the case of `CCn1ccnc1CN(C)Cc1cccc2nonc12`, the “% Inhibition” value is recorded as -8% and the Z score came out at 1.06.

For `Cc1n[nH]c(C)c1NC(=O)CCCCOc1cccc(C#N)c1`, the “% Inhibition” value is reported as -6% and the Z score came out at 1.12.

As to `CC(C)Cc1nc(C(=O)N[C@H]2CCc3nccn3C2)cs1`, the “% Inhibition” value was -6% and the Z score stood at 0.82.

On to `Cc1nc(C)c(C(=O)N2CCc3sccc3[C@@H]2C)s1`, for which the “% Inhibition” value amounted to 3% and the Z score is recorded as -0.63.

Consider `COc1ccc([C@@H]2COCCN2Cc2[nH]c(C)nc2C)cc1`, for which the “% Inhibition” value is on record as -3% and the Z score is given as 0.69.

With `CC1CC(C(=O)O)CC(C)N1Cc1ccn(-c2ccc(Cl)cc2)n1` (stereo unspecified), the “% Inhibition” value was -13% and the Z score was found to be 2.13.

With `C[C@@H](CO)NC(=O)Nc1cc(Br)c(F)cc1Cl`, the “% Inhibition” value came out at 34% and the Z score was -1.23.
